# Test results taken from PubChem BioAssay AID504832 (National Center for Advancing Translational Sciences (NCATS), 2011).
# In all, about 310,000 compounds went through this assay and about 18,000 (5.8%) were called active. Inconclusive results, whose numbers are uncertain, are shown with a selection of clear calls. The call rests on the fitted dose curve; in most records, active means well fitted inhibition curve with a large enough effect; inconclusive means small, poorly fitted or top-dose-only effect, or another doubt; inactive means no such curve, though single readings can be large or run the other way. Potencies of inconclusive entries are left out as doubtful fits.
# Test: Primary qHTS for delayed death inhibitors of the malarial parasite plastid, 48 hour incubation
# Settings: P. falciparum luciferase growth in erythrocytes; series mostly up to 28.7 µM
# Outline: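 Growth was read as firefly luciferase luminescence after a 48 h, 37 C, 5% CO2 exposure of compounds to reporter-bearing P. falciparum cultures (0.1% parasitemia, 2% hematocrit final) in Albumax-supplemented RPMI 1640.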
# Potency means the concentration at half of the fitted maximal effect; tags describe the fitted curve by direction and shape.
row,SMILES,Potency
1,Cc1onc(-c2ccccc2Cl)c1C(=O)NCc1ccc2c(c1)cc(C)n2C,active: 10.4 µM
2,CCCCNC(=O)Cn1c(=O)c2c(ncn2CCC(C)C)n(Cc2ccccc2)c1=O,"inconclusive [inhibitor, single point]"
3,Cc1cccc(NCCNc2cccc(C)c2)c1,inactive
4,S=C(NCC1CCCO1)Nc1ccc(Cl)cc1Cl (configuration not stated),inactive
5,Oc1ccc(-[n+]2c(-c3ccccc3)cc(-c3ccccc3)cc2-c2ccccc2)cc1,active: 0.37 µM
6,Cc1cc(OCC(=O)Nc2ccc(S(=O)(=O)N3CCN(C)CC3)cc2)cc(C)c1Cl,"inconclusive [inhibitor, partial curve]"
7,Cc1cc(/C(N)=N/OC(=O)Nc2cccc(C(F)(F)F)c2)no1,"inconclusive [inhibitor, single point]"
8,O=C(Nc1cccc(S(=O)(=O)N2CCOCC2)c1)C1COc2ccccc2O1 (configuration not stated),inactive
9,COc1ccccc1CNC(=O)CCCOc1cc(=O)n(C)c2ccccc12,"inconclusive [inhibitor, full curve, poor fit]"
10,Cc1ccc(OCCCC(=O)Nc2cc(S(=O)(=O)N3CCOCC3)ccc2N2CCOCC2)cc1,active: 10.4 µM
11,CN(C(=O)c1ccc(NC(=O)Cc2ccc(NC(=O)C3CCN(C(=O)CCc4ccccc4)CC3)cc2)cc1)C1CC1,"inconclusive [inhibitor, full curve]"
12,Cc1cc(=O)oc2cc(OCc3ccc(C(=O)OCC(=O)Nc4ccccc4OC(F)F)cc3)ccc12,inactive
13,CC(C)Oc1cccc(C(=O)Nc2ccc(N3CCN(C)CC3)cc2)c1,inactive
14,C=CCSc1nc2sc3c(c2c(=O)n1-c1ccc(C)cc1)CCN(C)C3,active: 3.7 µM
15,C=CCn1c(O)c(C(CC)=Nc2ccc(NC(C)=O)cc2)c(=O)[nH]c1=O,"inconclusive [inhibitor, single point]"
16,COc1ccc(C(=O)N/C(=C\c2cccc3ccccc23)C(=O)N2CCN(C)CC2)cc1,"inconclusive [inhibitor, single point]"
17,CCOc1ccc(N(CC(=O)Nc2cccc(N(C)S(C)(=O)=O)c2)S(=O)(=O)c2ccccc2)cc1,"inconclusive [inhibitor, single point]"
18,CC1CCCC(NC(=O)NC(=O)COC(=O)c2ccc(O)cc2O)C1C (configuration not stated),active: 7.38 µM
19,CC1CCN(C(=O)CSCC(=O)O)CC1,inactive
20,COC(=O)c1[nH]c2ccc(Cl)cc2c1NC(=O)CCN1CCN(C2CCCCC2)CC1,active: 11.7 µM
21,COc1ccc(-n2ncc3c2CC(C)(C)CC3NC(=O)c2ccc(OC)o2)cc1 (configuration not stated),inactive
22,COc1cc(SC)ccc1C(=O)NCc1ccc(C)cc1,"inconclusive [inhibitor, partial curve, poor fit]"
23,CN1CCN(c2ccc(CNS(=O)(=O)c3ccsc3)cc2)CC1,inactive
24,c1ccc(-c2ccc(-c3cnc4n3CCCCC4)cc2)cc1,"inconclusive [inhibitor, single point]"

row,SMILES,Potency
1,COc1ccc(-n2c(C)cc(C(=O)CSc3ccc(NC(C)=O)cc3)c2C)cc1,"inconclusive [inhibitor, partial curve, poor fit]"
2,COc1cc(/C=C(\NC(C)=O)C(=O)Nc2cccc(O)c2)ccc1OC(C)=O,inactive
3,Cc1ccc(C(=O)Nn2c(C)nc3ccccc3c2=O)cc1C,inactive
4,CSc1ncccc1C(=O)OCC(=O)c1cc(C)n(CC2CCCO2)c1C (configuration not stated),inactive
5,O=C(COc1ccc(F)cc1)Nc1nc2c(s1)CCCC2,inactive
6,COc1ccc(/C(C)=N/NC(=O)C(NC(=O)c2ccccc2)c2n[nH]c(=O)c3ccccc23)c(OC)c1 (configuration not stated),"inconclusive [inhibitor, partial curve, poor fit]"
7,O=C(NC(=S)Nc1nc2ccccc2s1)c1cccs1,inactive
8,CCC(=O)c1c[nH]c(C(=O)N2CCN(c3ccccc3)CC2)c1,inactive
9,O=c1[nH]c(CN2CCN(Cc3ccccc3)CC2)nc2scc(-c3ccccc3)c12,"inconclusive [inhibitor, single point]"
10,CCN(CC)S(=O)(=O)c1cccc(NC(=O)C2CC(=O)N(c3ccc4c(c3)OCCO4)C2)c1 (configuration not stated),"inconclusive [inhibitor, single point]"
11,O=C(N/N=C/C(Cl)=C/c1ccccc1)c1ccco1,active: 5.22 µM
12,O=C(CC12CC3CC(CC(C3)C1)C2)NC(=S)Nc1ccc(CN2CCOCC2)cc1,"inconclusive [inhibitor, partial curve]"
13,COc1cc(C(=O)N2CCc3ccccc32)ccc1OCc1c(C)noc1C,"inconclusive [inhibitor, single point]"
14,Cc1cc(C)cc(N2C(=O)CC(c3ccccc3)CC2=O)c1,inactive
15,COc1cccc(-c2cc(C(=O)NC3CC3)c3ccccc3n2)c1,"inconclusive [inhibitor, partial curve]"
16,O=C(CSc1nncn1-c1ccccc1)Nc1cc(F)ccc1F,inactive
17,CCCCCCn1c(COc2ccccc2F)nnc1SCC(=O)N1c2ccccc2NC(=O)C1(C)C,active: 13.1 µM
18,O=C(Cn1c(=O)ccn(Cc2ccccc2)c1=O)Nc1cccc(S(=O)(=O)N2CCOCC2)c1,"inconclusive [inhibitor, single point]"
19,CSC1=C(C#N)C(CC(C)C)C(C(C)=O)=C(C)N1 (configuration not stated),"inconclusive [inhibitor, single point]"
20,CCOc1ccccc1OCCCC(=O)Nc1sccc1C(N)=O,active: 11.7 µM
21,Fc1ccc(Nc2ccnc(Nc3ccc(F)cc3)n2)cc1,active: 2.33 µM
22,COc1cccc(/C=C/C(=O)c2cccc([N+](=O)[O-])c2)c1OC,inactive
23,CSc1ccccc1OCc1cc(C(=O)NCc2csc(C(C)C)n2)no1,"inconclusive [inhibitor, single point]"
24,O=C(C1CC(=O)N(c2ccc3c(c2)OCCO3)C1)N1CCN(c2ccccc2)CC1 (configuration not stated),inactive

row,SMILES,Potency
1,CCc1noc(C)c1C(=O)N1CCCSC1=Nc1ccccc1Cl,"inconclusive [inhibitor, partial curve, poor fit]"
2,O=C(Nn1c(=O)[nH]c2ccccc2c1=O)c1ccco1,inactive
3,C=CCN1C(=O)NC(=O)/C(=C/c2ccc(OC)c(CSc3ccccn3)c2)C1=O,"inconclusive [inhibitor, full curve, poor fit]"
4,CC1CC(C)CN(C(=O)/C=C/c2ccc(S(=O)(=O)N3CCOCC3)cc2)C1 (configuration not stated),active: 9.28 µM
5,Cc1cccc(OCCSCc2nc3ccccc3[nH]2)c1,"inconclusive [inhibitor, partial curve, poor fit]"
6,Cn1cc(CC(=O)N2CCN(c3ccc(Cl)cc3)CC2)c2ccccc21,inactive
7,CCCN(CCC)C(=O)CSc1nc2ccccc2c(=O)n1CC1COc2ccccc2O1 (configuration not stated),"inconclusive [inhibitor, single point]"
8,CCn1c(/C=C/c2ccc(O)cc2)nc2ccccc2c1=O,inactive
9,COc1cc(/C=C2\SC(=O)N(CCNC(=O)c3sc4cc(F)ccc4c3Cl)C2=O)cc(OC)c1OC,"inconclusive [inhibitor, full curve, poor fit]"
10,CCc1ccccc1NC(=O)/C(C#N)=C/c1ccc(Sc2ccccc2)o1,"inconclusive [inhibitor, partial curve, poor fit]"
11,O=C(c1cn(Cc2ccccc2)nc1-c1ccccc1)N1CCN(c2ccccn2)CC1,active: 14.7 µM
12,O=C(CSC1CC(=O)N(CCc2ccccc2)C1=O)Nc1cccc(Cl)c1 (configuration not stated),"inconclusive [inhibitor, single point]"
13,CC1(C)Cc2cccc(Oc3ccc(S(=O)(=O)N4CCCC4)cn3)c2O1,active: 11.7 µM
14,CC1(C)CNc2cc([N+](=O)[O-])ccc2S1,"inconclusive [inhibitor, single point]"
15,CC(C)Cn1nc(C(=O)NCc2ccccc2CN2CCCC2)c2ccccc2c1=O,"inconclusive [inhibitor, partial curve, poor fit]"
16,CC(NC(=O)Cc1ccc(Br)cc1)c1ccccc1 (configuration not stated),inactive
17,CCN(Cc1ccccc1)C(=O)C1CCN(c2ncnc3c2nc2n3CCCCC2)CC1,"inconclusive [inhibitor, partial curve]"
18,Cc1cccc(N(C)C(=O)CN2C(=O)COc3ccc(S(=O)(=O)N4CCCCCC4)cc32)c1,"inconclusive [inhibitor, partial curve]"
19,CCOc1ccc2nc(N(CCCN(C)C)C(=O)c3ccc(C(=O)c4ccccc4)cc3)sc2c1,active: 10.4 µM
20,N#Cc1c(N)nc2c(c1-c1cccnc1)CCCCC2,"inconclusive [inhibitor, partial curve, poor fit]"
21,O=C(NCc1cccs1)C(=O)c1cn(CC(=O)N2CCCC2)c2ccccc12,"inconclusive [inhibitor, partial curve, poor fit]"
22,O=C(/C=C/c1ccco1)Nc1ccc(Oc2ccc(Cl)cc2)cc1,active: 8.28 µM
23,COc1ccc(NC(=O)c2cc3n(n2)C(C(F)(F)F)CC(c2ccco2)N3)cc1 (configuration not stated),"inconclusive [inhibitor, single point]"
24,NC(=O)CC(NC(=O)Cc1ccc(Br)cc1)c1ccc(NC2CCN(Cc3ccccc3)CC2)c([N+](=O)[O-])c1 (configuration not stated),"inconclusive [inhibitor, partial curve, poor fit]"
